Test results as given in PubChem BioAssay AID1963576 (National Center for Advancing Translational Sciences (NCATS), 2024).
Screen size: about 46,000 compounds; about 60 (0.1%) were called active. Inconclusive results (about 3%) are left out. The call rests on the fitted dose curve; in most records, active means well fitted inhibition curve with a large enough effect; inconclusive means small, poorly fitted or top-dose-only effect; inactive means no such curve, though single readings can be large or run the other way. This is one part of the list.

experiment: Primary qHTS assay for Inhibitors of ovarian cancer metastasis using an organotypic tumor microenvironment (TME) model.; further: nearly all actives have a fitted effect of over 65% in size;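 on activity change, negative = inhibition: plate controls were DMSO wells for no effect and tomatine positive control wells for full effect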; conditions: SKOV3ip1-GFP adhesion/invasion on 3D omental model, fluorescence; series mostly up to 45.8 µM; activity change, negative = inhibition: at the top concentration
Outline: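 A 3D layer of primary human omental fibroblasts, mesothelial cells, fibronectin and collagen I, grown 48 hr, received SKOV3ip1-GFP cells in serum-free medium plus compounds at 0.36-46 umol/L. After 2 hr RT and 16 hr 37 C, fixed adherent GFP cells were counted; normalized to DMSO and tomatine.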

Compound	activity change, negative = inhibition	outcome
COc1ccc(NC(=O)CSc2oc(-c3ccco3)nc2S(=O)(=O)c2ccc(C)cc2)c(OC)c1	inactive: 1.11%	–
CCOc1ccc(NC(=O)Cn2c(=O)n(CC3CCC(C(=O)NCCc4ccccc4)CC3)c(=O)c3ccccc32)cc1 (stereo not drawn)	–	inactive
COc1ccccc1C(=O)Nc1cccc(C(=O)OCc2cc(=O)n3c4c(sc3n2)CCCC4)c1	–	inactive
Cc1ccc(C)c(NC(=O)CSc2nnc3[nH]c(=O)cc(-c4ccccc4)n23)c1	inactive: 2.35%	–
COc1cc(C(=O)NC(c2ccccc2Cl)c2cc(Cl)c3cccnc3c2O)cc(OC)c1OC (stereo not drawn)	–	inactive
CC(=O)Nc1ccc(NC(=O)c2cc(CN3CCCC3)on2)cc1	inactive: 12.2%	–
Cc1ccc(CN2CCCn3nc(C(=O)NCc4ccc(N(C)C)cc4)cc3C2=O)cc1	inactive: -14.2%	–
COc1ccc(CCNc2nc3c(-c4cccc(C(F)(F)F)c4)nnn3c3ccccc23)cc1OC	inactive: 6.19%	–
O=C(Nc1ccccc1-c1nc2ccccc2s1)c1ccc(F)cc1	inactive: 4.28%	–
Clc1ccc(-c2cc3ncc4c(n3n2)-c2ccccc2OC4)cc1	–	inactive
CCC(=O)N1CCc2cc(S(=O)(=O)NCCC(=O)Nc3ccc(CC)cc3)ccc21	inactive: 1.17%	–
CC(C)CNC(=O)Nc1cc(C(=O)NCc2ccc(C(C)C)cc2)ccc1N1CCCC1	inactive: 2.29%	–
CCOc1ccc(NC(=O)c2cc3cc(C)ccc3n2C)cc1	inactive: 7.66%	–
O=C(CSc1nc2ccsc2c(=O)n1-c1ccc(Cl)cc1)NCc1ccc(Cl)cc1	–	inactive
CC1CCN(c2nc(-c3ccc(C(C)(C)C)cc3)nc3ccccc23)CC1	inactive: -5.26%	–
COc1ccc(CCNC(=O)c2c(O)nc3ccccn3c2=O)cc1OC	inactive: -3.82%	–
CCOc1ccc2nc(N3CCCC(C(=O)Nc4ccc(OC)cc4)C3)sc2c1 (stereo not drawn)	inactive: 36.9%	–
O=C(CC1N=C2c3ccccc3N=C(SCC(=O)Nc3ccc(F)cc3)N2C1=O)NCc1ccco1 (stereo not drawn)	inactive: 2.81%	–
CCOc1ccc(NC(=O)c2oc3ccccc3c2NC(=O)C(C)(C)C)cc1	inactive: 15.5%	–
COc1ccccc1NC(=O)CSc1oc(-c2ccco2)nc1S(=O)(=O)c1ccc(C)cc1	inactive: -3.01%	–
COc1ccc(NC(=O)c2csnn2)cc1Cl	–	inactive
CCc1nn2c(=O)cc(COC(=O)c3ccc(NC(=O)COc4ccccc4C)cc3)nc2s1	inactive: 10.7%	–
Cc1ccc(C(=O)Nc2nnc(S(=O)(=O)N(C)Cc3ccc(Cl)cc3)s2)cc1	inactive: -1.81%	–
COc1cc(Nc2ncc3c(n2)CCN(Cc2ccc(OC(C)C)c(OC)c2)C3)cc(OC)c1	inactive: -13.9%	–

Compound	activity change, negative = inhibition	outcome
Cc1ccccc1OC(=O)c1cc(-c2ccc3c(c2)OCCO3)on1	inactive: 5.41%	–
COc1ccc(NC(=O)C2CCN(C3=NS(=O)(=O)C(c4ccc(C)c(C)c4)=C3C)CC2)c(OC)c1	inactive: 0.159%	–
Cc1ccc(NC(=O)N2CC3CCCN3c3ccccc32)cc1Cl (stereo not drawn)	inactive: -23.9%	–
CCN1CCN(c2nnc(-n3cccc3C(=O)NCc3ccccc3OC)s2)CC1	inactive: -7.07%	–
O=C(Cn1ncc2c3ccccc3n(Cc3ccccc3F)c2c1=O)N1CCCCCC1	inactive: 1.27%	–
O=C(c1noc2c1CCCCC2)N1CCN(c2cccc(Cl)c2)CC1	inactive: 2.96%	–
COc1ccc(C)cc1NS(=O)(=O)c1cnc(N)nc1	–	inactive
CCc1ccccc1NC(=O)Cn1nnc2sc3c(c2c1=O)CCC(C(C)(C)C)C3 (stereo not drawn)	inactive: 4.09%	–
O=C(c1cc2ccc3cccnc3c2[nH]1)N1CCCCC1	inactive: 2.15%	–
Cc1ccc(C)c(NC(=O)Cc2coc3cc(C)cc(C)c23)c1	inactive: 0.735%	–
O=C(NCCc1csc(-c2cccc(F)c2)n1)C(=O)Nc1cc(F)ccc1F	inactive: 5.26%	–
COc1cccc(CNC(=O)C2CCN(S(=O)(=O)c3c(C)noc3/C=C/c3cccs3)CC2)c1	–	inactive
Cc1cccc(NC(=O)CSc2ccc(-c3sc(-c4ccccc4)nc3C)nn2)c1C	inactive: 2.83%	–
CC(=O)c1ccc(N2CCN(C(=O)c3cc(S(=O)(=O)N4CCCCCC4)cn3C)CC2)cc1	inactive: 17.3%	–
CC(=O)Nc1cccc(NC(=O)CSc2nccn2Cc2ccc3c(c2)OCO3)c1	inactive: -10.3%	–
CCOC(=O)c1cc2c(=O)n3ccccc3nc2n(CC2CCCO2)c1=NC(=O)c1ccccc1Br (stereo not drawn)	inactive: -17.6%	–
CCOC(=O)c1sc2ncn(CC(=O)Nc3cc(Cl)ccc3C)c(=O)c2c1C	–	inactive
COCCCNC(=O)c1ccc(Cn2c(SCc3ccc(F)cc3)nc3cccnc32)cc1	–	inactive
O=C(OCc1cc(=O)n2nc(-c3cccs3)sc2n1)c1cccc(F)c1	–	inactive
Cc1cc(C(=O)Nc2c(C)cccc2C)n(-c2ccccc2)n1	inactive: 3.37%	–
Cc1ccc(CN(Cc2ccco2)C(=O)c2ccccc2Br)o1	–	inactive
CCCOc1cccc(C2c3c(oc4ccc(F)cc4c3=O)C(=O)N2CCCN2CCOCC2)c1 (stereo not drawn)	inactive: 43.1%	–
CC(C)c1nn2c(=O)cc(COC(=O)C3CCCCC3)nc2s1	inactive: -11.5%	–
Cc1cc(Br)cc(C)c1NC(=O)c1sc2ncn(Cc3cccc(F)c3)c(=O)c2c1C	inactive: 5.82%	–
